Several values for one entry are separate records, joined by “and”; a condition that tells them apart may be missing. Equal entries are not always repeated.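 Cultured in 96-well plates, cells were exposed to test compound for 48 hours across five concentrations. GI50 = concentration required for 50% inhibition of growth.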 Activity calls are given as the source filed them. No stated cut-off is given here; in the data, active = GI50 up to about 1.1 µM and inactive = higher.
The compounds below were run on NCI-H322M (assay: growth of human tumour cells (NCI), 48 h).

Structure (SMILES) | GI50
O=C(Nc1ccccc1)c1cc(S(=O)(=O)Nc2n[nH]c(=O)n2-c2ccccc2)c(S)cc1Cl | inactive: > 100 µM
c1ccc2sc(SSSc3nc4ccccc4s3)nc2c1 | inactive: > 100 µM
COc1ccc(C2=C(Cl)c3cc(OC)c(OC)cc3C2Cl)cc1 (stereo not drawn) | inactive: 16 µM
CC#C[C@@]1(O)CCCC[C@@H]1O | inactive: > 100 µM
CC(=O)OCC1OC(OC(C)=O)C(Nc2ncc(-c3ccc(C)cc3)s2)C(OC(C)=O)C1OC(C)=O (stereo not drawn) | inactive: 16.6 µM
CCSc1nc2n(c(=S)n1)CCN2C | inactive: 22.8 µM
O=C(c1cccs1)c1nccc2c1cnc1ccccc12 | inactive: > 100 µM
CCc1cccc(NC(=O)c2cc(/C=C/c3ccccc3)nc(S)n2)c1 | inactive: > 100 µM
C#CCOC(=O)C(=[N+]=[N-])C(=O)CC(C)C | inactive: > 10 µM
COCC12CC(CC1=O)C1C2ON2c3ccccc3C(=O)C12c1ccccc1 (stereo not drawn) | inactive: > 100 µM
O=C(Cc1nc2ccccc2o1)C(=O)Nc1ccccc1C(F)(F)F | inactive: > 100 µM
CC(C)=CCN1c2ccccc2[C@@]2(CC=C(C)C)CCN(C)[C@@H]12 [(+)-DEBROMOFLUSTRAMINE B] | inactive: 40.9 µM
O=C1C(Br)=CC2(C=C1Br)CCNC1=C2C(=O)c2[nH]cnc2C1=O | inactive: 16.3 µM
Cc1cc(NS(=O)(=O)c2ccc(NO)cc2)no1 | inactive: > 100 µM
Cc1ccc(NC(=O)CC2Sc3ccccc3NC2=O)cc1C (stereo not drawn) | inactive: 60.5 µM
COc1ccc(/C=C2/S/C(=N\c3ccccc3)N(NC(=O)Cc3ccccc3)C2=O)c(OC)c1 | inactive: > 100 µM
CC1(c2ccc(Cl)cc2)N=C(NCCO)c2ccccc21 (stereo not drawn) | inactive: 17.7 µM
Cc1ccc(-c2n[nH]c(=O)n2/N=C\c2ccccc2O)cc1 | inactive: > 100 µM
CS(=O)(=O)CCC(N)P(=O)(O)O (stereo not drawn) | inactive: > 100 µM
C/C(CC(=O)Nc1ccc([N+](=O)[O-])cc1)=N/N=C(N)N | inactive: > 100 µM
CCCCOP(=O)(OCCCC)C(NS(=O)(=O)c1ccccc1)(C(=O)OCC)C(F)(F)F (stereo not drawn) | inactive: 49 µM
Cc1occc1C(=S)Nc1ccc(Cl)c(C(=O)OC(C(C)C)C(C)C)c1 | inactive: 17.1 µM
COc1ccc(C(C#N)NNC(=O)Cc2ccccc2)cc1OC (stereo not drawn) | inactive: > 100 µM
CC(C(=O)NCNC(=O)c1ccccc1)C(=O)NCc1ccccc1 (stereo not drawn) | inactive: > 100 µM

Structure (SMILES) | GI50
Oc1ccc(CCNCc2cc3c(cc2Br)OCO3)cc1 | inactive: > 100 µM
Nn1c(CCCCCCCCc2nnc(COc3ccc(Cl)cc3Cl)n2N)nnc1COc1ccc(Cl)cc1Cl | inactive: 87.1 µM
Cn1cc(C(=O)/C(Cl)=C(\Cl)C(=O)O)c2ccccc21 | inactive: > 100 µM
Cc1cc(=O)c2c(O)cc3c(c2o1)CC=C(COC1OC(COC2OC(CO)C(O)C(O)C2O)C(O)C(O)C1O)CO3 (stereo not drawn) | inactive: > 100 µM
CNC(=O)c1nnn(C2CCCCC2)c1S | inactive: > 100 µM
CN1Cc2cc3cc4c(cc3nc2N(C)C1)OCCO4 | inactive: > 100 µM
Cc1ccc(Nc2n[nH]c(NS(=O)(=O)c3cc(C)c(Cl)cc3S)n2)cc1 | inactive: > 100 µM
Cc1ccc(/N=C/C=C(\Nc2ccc(C)cc2)c2ccc3ccccc3c2)cc1 | active: 0.655 µM
CCN(CC)CC(C)C(=O)/C=C/c1ccc(C)cc1 (stereo not drawn) | inactive: 13.1 µM
CCOC(=O)c1c(C)n(-c2ccc(C)cc2)c(=O)c2ccccc2c(=O)c2c(=O)ccc(=O)c1=2 | inactive: 20 µM
Cc1cccc(-c2nc3ccc([N+](=O)[O-])cc3c(=O)o2)c1 | inactive: > 100 µM
COC(=O)NC(Nc1ccc(C)cc1)(C(F)(F)F)C(F)(F)F | inactive: > 100 µM
N/C(=N\Nc1ccc(C(=O)O)cc1)c1cnccn1 | inactive: > 100 µM
O=[N+]([O-])c1nccn1CC(O)CN1CCCCC1 (stereo not drawn) [PIMONIDAZOLE] | inactive: > 100 µM
O=S(=O)(c1ccccc1)C1CN2OC1(S(=O)(=O)c1ccccc1)CC21CCCCC1 (stereo not drawn) | inactive: > 100 µM
Cc1ccc(O)c(C2=CC(c3cccc(Br)c3)SC(=N)N2)c1 (stereo not drawn) | inactive: 33.7 µM
N#CCCn1c(S)nnc1CCC(=O)Nc1ccc(Cl)cc1Cl | inactive: > 100 µM
COc1ccc([C@H]2CC(=O)N3CCCC3N2)cc1 (stereo partly drawn) | inactive: > 100 µM
COC1/C(=C\C(=O)OC(C)(C)C)c2ccccc2N1C(C)=O (stereo not drawn) | inactive: > 100 µM
CC(=O)Nc1ccc2cc(C#N)c(=O)[nH]c2n1 | inactive: > 100 µM
CC(C)(C)OC(=O)NCCNC(=O)OCc1ccccc1 | inactive: > 100 µM
CC(C)(CN1CCCCC1)C(/C=C/c1ccc(Cl)c(Cl)c1)=N\NC(=O)N/N=C(/C=C/c1ccc(Cl)c(Cl)c1)C(C)(C)CN1CCCCC1 | inactive: 1.78 µM
CC(C)=CCC/C(C)=C/CC/C(C)=C/CC/C=C(\C)CC/C=C(\C)CCC1SC1(C)C (stereo not drawn) | inactive: > 100 µM
Nc1nc(N)nc(-c2cnc3ccccc3c2)n1 | inactive: > 100 µM

Structure (SMILES) | GI50
Cn1c2c(c3c(=O)[nH]ncc31)Cc1ccccc1-2 | inactive: 10.9 µM
CN(C)c1ccc(/C=C/C(=O)O)cc1 | inactive: > 100 µM
O=C1/C(=C\c2ccc(O)cc2)CCC/C1=C/c1ccc(Cl)c(Cl)c1 | inactive: 4.95 µM
CCOP(=O)(OCC)c1cc2cc(O)ccc2oc1=O | inactive: > 100 µM
CCN(CC)CCCNc1nnc(C)c2[nH]c3ccccc3c12 | inactive: 8.38 µM
COC(=O)[C@]12CSC[C@H]1C[C@H](c1cccc3ccccc13)N2 | inactive: > 100 µM
Clc1ccc2oc(CCc3ccccc3)nc2c1 | inactive: > 100 µM
CO/C(=N\N=C\c1ccc(C(F)(F)F)cc1)c1ccncc1 | inactive: > 10 µM
CC(C)N(C(=O)C12CC3CC(CC(C3)C1)C2)C(C)C | inactive: > 50 µM
O=C1NC2(CCNCC2)Oc2ccccc21 | inactive: > 100 µM
COC(=O)[C@@H](NC(=O)[C@H](N)Cc1ccc(N(CCCl)CCCl)cc1)C(C)C | inactive: 36.6 µM
CCSc1c2cc(OC)ccc2nc2ccc(OC)cc12 | inactive: 19.1 µM
N#CC(C#N)=c1ccc(=C2N3CCCC3CN2C23CC4CC(CC(C4)C2)C3)cc1 (stereo not drawn) | inactive: > 100 µM
C[C@@H](NC(=O)OC1C=CC2(CC1)C(=O)N(C)c1ccccc12)c1cccc2ccccc12 (stereo partly drawn) | inactive: > 25 µM
CC(=O)c1ccccc1NC(=O)C(=O)C(C(=O)c1ccc2ccccc2c1)C1OC(=O)c2ccccc21 (stereo not drawn) | inactive: 15 µM
N#Cc1ccccc1OCCOc1ccccc1C#N | inactive: > 100 µM
CC(C)=CC(=O)Cc1nc2cc(C)c(C)cc2[nH]c1=O | inactive: > 100 µM
NCCN1C(=O)c2ccccc2C1c1ccc(Cl)cc1 (stereo not drawn) | inactive: > 100 µM
COc1cc(S(=O)(=O)Nc2ccc(-c3csc(N)n3)cc2)ccc1Cl | inactive: 20.8 µM
CC(=O)Nc1ccccc1-c1cnc2ccccc2n1 | inactive: > 100 µM
CC1=CC2=C(C)C3(CC3)[C@@](C)(O)C(=O)C2=C1 | active: 0.546 µM
C=C1C[C@]23C[C@@]1(O)CC[C@H]2[C@@]12C=C[C@H](O)[C@@](C)(C(=O)O1)[C@H]2[C@@H]3C(=O)O [GIBBERELLIN A3] | inactive: > 100 µM
CC(C)(/N=N/C(C)(C)C(=O)NCCO)C(=O)NCCO | inactive: > 100 µM
COC(=O)[C@H](CCSC)NC(=O)c1ccc(CNC(=O)/C(C)=C/c2ccccc2)cc1 | inactive: 22.1 µM

Structure (SMILES) | GI50
NC(=O)N/N=C(\CC1OC(=O)c2ccccc21)c1ccco1 (stereo not drawn) | inactive: > 100 µM
O=C1OCC(CN2CCC(n3c(=O)[nH]c4ccccc43)CC2)=C1c1ccccc1 | inactive: 28.2 µM
CCOC(=O)c1c(N2CCCC2)[nH]c(=O)c(C(c2ccco2)c2c(O)c(C(=O)OCC)c(N3CCCC3)[nH]c2=O)c1O | inactive: > 100 µM
COc1ccc(Nc2nc3ccccc3nc2C(=O)O)cc1OC | inactive: > 100 µM
COc1ccc(CCCCl)c(C2=NCCc3ccccc32)c1 | inactive: > 100 µM
Nc1ccc(O)c2c1C(=O)c1c(N)ccc(O)c1C2=O | inactive: > 100 µM
CCCNC(=O)C(C)(Cl)C(=O)c1ccccc1O (stereo not drawn) | inactive: > 100 µM
C=CCC1C(=O)Nc2cccc3ncn(c23)C1=O (stereo not drawn) | inactive: > 100 µM
Nc1n[nH]c(CCCCCCCc2nnc(N)[nH]2)n1 | inactive: > 100 µM
O=C1CSC(c2ccc([N+](=O)[O-])cc2)N1c1ccc(-c2ccc(-n3c(-c4ccccc4)nc4ccccc4c3=O)cc2)cc1 (stereo not drawn) | inactive: > 100 µM
CC(C)Cc1ccc(C(C)/C=C2\CCC(CN(C)C)C2=O)cc1 (stereo not drawn) | inactive: 19.2 µM
COC(=O)c1sc2ncc3c(c2c1N)CC(C)CC3 (stereo not drawn) | inactive: > 100 µM
COc1cc(C=O)c(-c2cc3c(cc2C2(C)OCCS2)OCO3)c(OC)c1OC (stereo not drawn) | inactive: 15.1 µM
CC1=C[C@H](O)[C@@]2(C)[C@@H]([C@@H]1C)[C@H]1CC[C@@H]3[C@@]4(C)CC[C@H](O)C(C)(C)[C@@H]4CC[C@@]3(C)[C@]1(C)C[C@@H]2O | inactive: 14.8 µM
C#CC1(O)C(COP(=O)(O)OC(COCCCCCCCCCCCCCCCCCC)COP(=O)(O)OCC2OC(n3cc(F)c(=O)[nH]c3=O)CC2O)OC(n2ccc(N)nc2=O)C1O (stereo not drawn) | active: 355 nM and active: 610 nM
CCCC(Sc1ccccc1)P(=O)(c1ccccc1)c1ccccc1 (stereo not drawn) | inactive: 55.7 µM
C=C[C@@]1(C)CC(=O)[C@]2(O)[C@@]3(C)[C@@H](OC(C)=O)CCC(C)(C)[C@@H]3[C@H](OC(C)=O)[C@H](OC(C)=O)[C@@]2(C)O1 | inactive: > 100 µM
CC(=O)Oc1cc2c(n(C)c1=O)CCC2 | inactive: > 100 µM
CN(C)C(=S)/N=c1\ss/c(=N\C(=S)N(C)C)n1-c1ccc(Cl)c(Cl)c1 | inactive: > 100 µM
CC(C)=CCC/C(=C/CC/C(=C\CCc1ccoc1)C(=O)O)C(=O)O | inactive: > 100 µM
COC(=O)C(CCC1(C)OCCO1)C(C)=O (stereo not drawn) | inactive: > 100 µM

From ChEMBL document CHEMBL1201862, “PubChem BioAssay data set” (2004)
